Measured values taken from PubChem BioAssay AID1240 (Sanford-Burnham Center for Chemical Genomics, 2008).
The campaign covered roughly 50,000 compounds. About 800 (1.6%) showed an effect of 50% or more. The list shows a part of the results.

What follows are molecules tested against Bcl-2-like protein 10 (Homo sapiens) (UniProt Q9HD36) (assay: Phenotype converters, Bcl-B/TR3 peptide binding displacement, primary biochemical FP (AID 1240;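 note: 0% = Bcl-B with tracer peptide and DMSO and 100% = tracer peptide lacking Bcl-B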)). Conditions: GST-Bcl-B / FITC-TR3 peptide fluorescence polarization; stronger effect = higher value; compound at 3.75 mg/L.
Sequence of UniProt Q9HD36 (Q9HD36 whole entry, looked up): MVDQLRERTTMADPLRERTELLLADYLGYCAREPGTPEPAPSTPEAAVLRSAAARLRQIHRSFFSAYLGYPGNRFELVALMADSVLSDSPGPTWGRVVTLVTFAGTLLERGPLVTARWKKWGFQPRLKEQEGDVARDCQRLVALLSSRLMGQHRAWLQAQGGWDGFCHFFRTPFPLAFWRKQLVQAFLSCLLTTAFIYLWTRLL

Compound	displacement [%]
Cc1cc(Cl)ccc1OCC(=O)N1CCC(C(N)=O)CC1	10.6
COc1ccc(O)c(-c2cc(-c3ccc(Br)cc3)n[nH]2)c1	6.2
C=CCNC(=O)C(=O)NCc1cccnc1	7.7
CC(=O)C1=C(O)C(=O)N(CC2CCCO2)C1c1ccc2c(c1)OCO2 (configuration not stated)	-4.1
COc1cc(/C=C2/SC(=S)N(CCC(=O)Nc3nnc(C)s3)C2=O)cc(OC)c1OC	41.4
CC(=O)c1ccc2c(c1)c1ccccc1n2C	14.3
NS(=O)(=O)c1ccc(NC(=O)c2c(Cl)cccc2Cl)cc1	-11.3
O=C(/C(=N/O)n1cnc([N+](=O)[O-])n1)c1ccccc1	10.4
COc1ccc(OC)c(C(=O)c2coc3ccc(O)c(CN(C)C)c23)c1	14.1
O=Nc1c(-c2ccccc2)[nH]n(-c2ccccc2)c1=O	12.4
Cc1c(C(=O)Nc2ccc(I)cc2Cl)oc2ccccc12	10.9
CC1=C(C(=O)OCCc2ccccc2)C(c2ccsc2)C2=C(CC(C)(C)CC2=O)N1 (configuration not stated)	-5.9
COc1ccc(S(=O)(=O)n2cnc3ccccc32)cc1[N+](=O)[O-]	-6.7
O=C(NCCNc1cc(Cl)ccc1[N+](=O)[O-])c1ccccc1Cl	7.6
CC(=O)Nc1ccc(S(=O)(=O)NC(C)C2C3CC4CC(C3)CC2C4)cc1 (configuration not stated)	0.3
CCC1(C)CC(CC(=O)O)(c2ccccc2OC)CCO1 (configuration not stated)	-96.8
COc1cccc(NC(=O)CN(c2ccc(C(C)C)cc2)S(=O)(=O)c2ccccc2)c1	7.1
O=S(=O)(c1cccc2nsnc12)N1CCN(C(c2ccccc2)c2ccccc2)CC1	13.5
O=C(Nc1ccccc1C(=O)N=Nc1c(O)[nH]c2ccc(Br)cc12)c1ccccc1	-10.8
Clc1ccc(-c2nc(N3CCOCC3)c3ccccc3n2)cc1Cl	16.9
O=C(Oc1c(C(=O)Nc2ccc(Cl)c([N+](=O)[O-])c2)ccc2ccccc12)c1ccccc1	1.9
CCCc1cc2c(-c3ccccc3)cc(=O)oc2cc1OC(C)C(=O)OC (configuration not stated)	9.2

Compound	displacement [%]
CCOC(=O)c1c(-c2ccc(C)cc2)csc1NC(=O)C1CC1	11.2
Cc1cccc(C)c1OCC(O)CN1CC(C)OC(C)C1 (configuration not stated)	12.7
COc1ccccc1/C=N/Nc1nnc(-c2ccccc2)c(-c2ccccc2)n1	6.3
Cc1c(C(=O)N2CCN(c3cccc(Cl)c3)CC2)cccc1[N+](=O)[O-]	-0.3
Cc1ccccc1OCC(=O)N1CCCc2ccccc21	-4.9
Cc1ccc(C(=O)N/C(=C\c2cccc(Oc3ccccc3)c2)C(=O)NCCCn2ccnc2)cc1	6.9
CCCN(CCC)c1ccc(/C=C2\SC(=S)NC2=O)cc1	0.3
CCOC(=O)c1ccc(NC(=O)CN(c2ccc(OCC)cc2)S(=O)(=O)c2ccc(SC)cc2)cc1	6.6
COc1ccc(-c2cc(O)cc(O)c2)cc1	-2.3
COc1ccc(NC(=O)CN(c2ccc(C)c(Cl)c2)S(C)(=O)=O)cc1OC	18.5
O=S(=O)(c1ccccc1C(O)(c1ccccc1)c1ccccc1)c1ccccc1C(O)(c1ccccc1)c1ccccc1	8.9
COc1ccc(CNC(=O)CN(c2ccc(Br)cc2)S(=O)(=O)c2ccccc2)cc1	8.2
C=CC(=O)NC(NC(=O)C=C)c1ccc(F)cc1	15.5
CC(C)CCNC(=O)c1cccc(I)c1	1.1
Cc1ccc(N2CCSC2C(N)=O)cc1 (configuration not stated)	3.7
Cc1ccc(-c2nc3ccc(C)cn3c2NC(=O)c2ccc(Cl)cc2)cc1	4.5
O=C1CSC(c2ccc([N+](=O)[O-])cc2)N1Cc1ccco1 (configuration not stated)	-4.6
Cc1ccc(C(=O)NCCNc2ccc([N+](=O)[O-])cc2)cc1	15
CC(C)(C)C1=CC(N)=C(C(C)(C)C)C(=O)C1=O	-7.3
N/C(=N\OC(=O)c1ccc(I)cc1)c1cccnc1	-4.9
CC(=O)Nc1cc(-c2ccc(Cl)cc2)nn1-c1ccccc1	-11
COc1cc(/C=N/Nc2nonc2N)cc(OC)c1OC	3.2

Compound	displacement [%]
CC(C)CCNC(=O)c1cccc([N+](=O)[O-])c1	10.4
COc1cc(C(=O)Nc2ccccc2C(N)=O)cc(OC)c1OC	4.7
CCOC(=O)c1c(NC(=O)c2cccs2)sc(C(=O)Nc2ccc3c(c2)OCO3)c1C	-2
COc1ccc(C2CC(=O)C3=C(C2)Nc2ccccc2NC3c2cccnc2)cc1OC (configuration not stated)	-3.7
Cc1cc(NC(=O)c2ccc([N+](=O)[O-])cc2)ccc1-c1cc2ccccc2oc1=O	-5.3
CCN(CC)CCSc1nc(O)c(-c2ccccc2)c(=O)[nH]1	-18.6
Cc1cccc(C(=O)Nc2ccccc2CO)c1	6.4
O=C(Nc1c(C(=O)N2CCCCCC2)cnn1-c1ccccc1)c1ccc(Br)cc1	-9.1
O=C(Nc1ncc(Cc2ccc(F)cc2)s1)c1ccc(OCc2ccccc2)cc1	-15.6
CCOc1ccc(NC(=O)CN(c2ccc(OC)c(Cl)c2)S(C)(=O)=O)cc1	3.9
COc1ccc(C(=O)Nc2ccc3c(c2)OCCO3)cc1OC	-0.4
CC(C)c1nnc(NC(=O)CSc2nncn2C)s1	14.8
O=C(NNC(=O)c1ccc(-c2ccccc2)cc1)Nc1ccccc1	6.6
CCc1ccc(NC(=O)C(=O)NCCN2CCN(C(=O)c3cccc(Br)c3)CC2)cc1	-15.5
O=C(N/N=C1\CCc2ccccc21)c1ccncc1	1.5
COc1ccc(C(NC(=O)c2ccccc2)NC(=O)c2ccccc2)cc1OC	14.7
CC(C)(C)c1cc(C(C)(C)C)cc(S(=O)(=O)CCc2ccncc2)c1	3
Cc1ccc(C(=O)CC(=O)c2ccc(C(C)(C)C)cc2)c(O)c1	-19.8
CCC(C)OC(=O)C1=C(C)NC(=O)NC1c1ccccc1F (configuration not stated)	3.9
CCOC(=O)C(=CNc1ccccc1C(=O)O)C(=O)OCC	8.7
Cc1[nH]c2ccccc2c1/C=C(/C#N)C(=O)Nc1cccc(Br)c1	-17.5
O=C(O)c1ccc(/C=N/N2CCN(Cc3ccc(Cl)cc3)CC2)cc1	8.8

Compound	displacement [%]
Cc1ccc(C(=O)Nc2cccnc2)cc1S(=O)(=O)N1CCOCC1	-23.4
COc1ccc(N2Cc3ccc(C(=O)N/N=C\c4ccc(Br)cc4)cc3C2)cc1	6.3
CCCCOc1ccc(C(=O)N2CCN(c3ccc(Cl)cc3)CC2)cc1	-4.5
COCCOC(=O)C1=C(C)NC2=C(C(=O)CC(C)(C)C2)C1c1cccc(F)c1 (configuration not stated)	5.6
Cc1ccc(C2CC(C(F)(F)F)n3ncc(C(=O)Nc4ccc(C)c(C)c4)c3N2)cc1 (configuration not stated)	16.2
O=c1cnnc(N/N=C/c2ccc([N+](=O)[O-])cc2)[nH]1	11.1
COc1ccc(C(=O)N2CCN(Cc3cccc(F)c3)CC2)cc1OC	-9.8
COC(=O)c1cc(Cl)c(NC(=O)c2c(-c3ccccc3Cl)noc2C)cc1OC	3.5
CCOC(=O)C1=C(O)/C(=C/c2ccccc2)SC1=Nc1cccc2ccccc12	14.5
COc1cc(OC)cc(C(=O)N(C(=O)c2cc(OC)cc(OC)c2)c2ncccc2C)c1	-14.7
N#C/C(=C/c1cccc(C(F)(F)F)c1)C(=O)Nc1ccc(Cl)cc1	-0.9
COc1cc(/C=C2/C(=O)NC(=O)N(C)C2=O)cc(Cl)c1O	-2.5
O=C1C(=C/C(Br)=C/c2ccccc2)SC(=S)N1Cc1ccccc1	4
Cc1ccc(N2C(=O)CC(NCc3ccco3)C2=O)cc1 (configuration not stated)	0.7
COc1cc(NC(=O)c2cc3n(n2)C(C(F)(F)F)CC(c2ccc(Br)cc2)N3)cc(OC)c1OC (configuration not stated)	12.4
CCOC(=O)c1c(NC(=O)C2CC3CCC2C3)sc(C(C)=O)c1C (configuration not stated)	-9.9
O=C(/C=C/c1ccc([N+](=O)[O-])o1)c1ccc(-c2ccccc2)cc1	-12.7
COc1ccc(C(=O)Nc2cccc(-c3nc4ccc(C)cc4o3)c2)cc1Br	-15.8
c1ccc2c3c(ccc2c1)OCOc1ccc2ccccc2c1C3	8.4
CC1(C)CC(=O)C2=C(C1)OC(N)=C(C#N)C2Cc1ccccc1 (configuration not stated)	-4.2
Cc1c(Cl)cccc1NC(=O)C(=O)NCc1ccc2c(c1)OCO2	2.8
Cc1nn(C(=O)C2CC2)c(C)c1Sc1ccccc1	-9.8

Compound	displacement [%]
Cc1ccc(C(=O)N2CCN(c3c(Cl)cccc3[N+](=O)[O-])CC2)o1	-2.7
Cc1c(NC(=O)c2cn3c4c(c(N5CCN(C)CC5)c(F)cc4c2=O)OCN3C)c(=O)n(-c2ccccc2)n1C	7.1
COc1ccc(C(=O)c2ccc(OC)cc2OC)c(OC)c1	5.6
CC1(C)CC(NCc2cc(Br)cc(Br)c2O)CC(C)(C)N1	13.8
O=C(CSCc1cccc(Br)c1)N=Nc1c(O)[nH]c2ccccc12	-2.4
COC(=O)C1=C(C)N(C)C(C)=C(C(=O)OC)C1c1cccs1	9.4
O=c1cc(C(F)(F)F)nc(Sc2c(-c3ccccc3)c3cc(Cl)ccc3[nH]c2=O)[nH]1	-3.4
CCOC(=O)c1sc(NC(=O)COc2ccc(C)cc2Br)nc1C	12.9
CCOc1ccc(/C=N/NC(=O)C(=O)NCc2cccnc2)cc1	5.4
C#CCOc1ccc(/C=C2\C(=O)NC(=O)N(c3cc(C)cc(C)c3)C2=O)cc1	-94.3
O=C(Oc1ccc(Cl)cc1)c1ccccc1	14.6
C=CCN1C(=O)/C(=C\c2ccc(C=O)cc2)SC1=S	9.6
CCCOC(=O)c1c(NC(=O)c2c(-c3ccccc3)noc2C)sc2c1CCCCC2	-7.2
O=C1c2ccccc2C(=O)N1/N=C/c1ccc(Cl)c([N+](=O)[O-])c1	-2.3
CCOC(=O)C1Cn2c(nc3c(c2=O)C(C)(C)Cc2ccccc2-3)S1 (configuration not stated)	-5.9
CC(C)(C)N=CC(C=NC(C)(C)C)[N+](=O)[O-] (configuration not stated)	-12.2
C#CC(C)(C)NC(=O)CN(c1cc(C)ccc1C)S(=O)(=O)c1ccccc1	2.6
O=C(/C=C/c1ccc(-c2ccc(Cl)cc2Cl)o1)c1ccco1	3.4
COc1ccc(NC(=O)CN(c2cccc(C(F)(F)F)c2)S(C)(=O)=O)cc1	-5.1
